In patent publication US20260306644A1, “ANTIBODY RECRUITING MOLECULES FOR THE TREATMENT OF CORONAVIRUS DISEASE-19” (priority 2023, published 2026):
“And” between values parts separate entries of the source, which are not always exact repeats. Equal values may be shown once. For some assays here: At least one peptide structure holds a part that was inferred or is arguable (an end, a ring closure or a residue). For at least one compound, name, drawing or mass did not settle the structure. Positions of bridges follow the written chain, without caps; N, C: chain ends. Non-standard residues stand in square brackets, D forms with d. Residues, ends and D or L forms follow the SMILES beside them. No end group written: not given here. *: point of attachment. Biotin = O=C1N[C@H]2[C@H](CS[C@H]2CCCCC(=O)*)N1; PEG4 = NCCOCCOCCOCCOCCC(=O)O; Nle = CCCC[C@H](N)C(=O)O; Aib = CC(C)(N)C(=O)O

Legend:
[1] = test system: live SARS-CoV-2 Virus (wildtype); assay: Neutralization of live SARS-CoV-2 virus, wildtype (Vero E6 cells, nucleoprotein ELISA); format: cell-based; details: isolate Seattle WA (IITRI)
[2] = test system: Spike RBD coated magnetic beads / RAW 264.7 macrophages; assay: Antibody-dependent cellular phagocytosis (ADCP), RAW 264.7 macrophages and Spike RBD coated magnetic beads, flow cytometry; format: cell-based; details: 37° C., 2 hours, read-out: SARS-COV-2 ADCP EC50
Summary of the method: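 Spike RBD-coated magnetic beads were mixed with RAW 264.7 macrophages (50,000 cells per well) and compounds at set final concentrations. The mixture was incubated 2 hours at 37° C, and bead uptake was measured by flow cytometry.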

Compound | EC50 [1] | EC50 [2]
CC[C@H](C)[C@H](NC(=O)[C@H](CC(C)C)NC(=O)[C@H](CC(=O)O)NC(=O)[C@H](CO)NC(=O)[C@@H](NC(=O)[C@H](CCCNC(=N)N)NC(=O)[C@H](CCSC)NC(=O)[C@H](CO)NC(=O)[C@H](C)NC(=O)[C@H](CCC(=O)O)NC(=O)[C@H](C)NC(=O)[C@H](Cc1c[nH]cn1)NC(=O)CNC(=O)[C@H](CC(C)C)NC(=O)[C@H](CCC(=O)O)NC(=O)[C@H](CC(=O)O)NC(=O)[C@H](CC(C)C)NC(=O)[C@H](CC(C)C)NC(=O)[C@H](CCCNC(=N)N)NC(=O)[C@H](CCSC)NC(=O)[C@@H](NC(=O)[C@H](CCC(=O)O)NC(=O)[C@H](Cc1ccc(O)cc1)NC(=O)[C@@H](NC(=O)[C@H](CCCCN)NC(=O)[C@H](CCC(N)=O)NC(=O)[C@H](CC(C)C)NC(=O)[C@@H](NC(=O)[C@H](Cc1c[nH]c2ccccc12)NC(=O)[C@H](CCC(=O)O)NC(=O)[C@H](CCCCN)NC(=O)[C@H](CC(=O)O)NC(C)=O)[C@@H](C)CC)[C@@H](C)CC)[C@@H](C)CC)C(C)C)C(=O)N[C@@H](Cc1ccc(O)cc1)C(=O)N[C@@H](CCC(=O)O)C(=O)N[C@@H](Cc1ccccc1)C(=O)N[C@@H](CCSC)C(=O)N[C@@H](CCCCN)C(=O)N[C@@H](CCCCN)C(=O)NCC(=O)O [Compound 103] | 0.13 nM | –
CC[C@H](C)[C@H](NC(=O)[C@H](CC(C)C)NC(=O)[C@H](CC(=O)O)NC(=O)[C@H](CO)NC(=O)[C@@H](NC(=O)[C@H](CCCNC(=N)N)NC(=O)[C@H](CCSC)NC(=O)[C@H](CO)NC(=O)[C@H](C)NC(=O)[C@H](CCC(=O)O)NC(=O)[C@H](C)NC(=O)[C@H](Cc1c[nH]cn1)NC(=O)CNC(=O)[C@H](CC(C)C)NC(=O)[C@H](CCC(=O)O)NC(=O)[C@H](CC(=O)O)NC(=O)[C@H](CC(C)C)NC(=O)[C@H](CC(C)C)NC(=O)[C@H](CCCNC(=N)N)NC(=O)[C@H](CCSC)NC(=O)[C@@H](NC(=O)[C@H](CCC(=O)O)NC(=O)[C@H](Cc1ccc(O)cc1)NC(=O)[C@@H](NC(=O)[C@H](CCCCN)NC(=O)[C@H](CCC(N)=O)NC(=O)[C@H](CC(C)C)NC(=O)[C@@H](NC(=O)[C@H](Cc1c[nH]c2ccccc12)NC(=O)[C@H](CCC(=O)O)NC(=O)[C@H](CCCCN)NC(=O)[C@H](CC(=O)O)NC(C)=O)[C@@H](C)CC)[C@@H](C)CC)[C@@H](C)CC)C(C)C)C(=O)N[C@@H](Cc1ccc(O)cc1)C(=O)N[C@@H](CCC(=O)O)C(=O)N[C@@H](Cc1ccccc1)C(=O)N[C@@H](CCSC)C(=O)N[C@@H](CCCCN)C(=O)N[C@@H](CCCCN)C(=O)NCC(=O)N[C@@H](CC(=O)O)C(=O)N[C@@H](CCC(=O)O)C(=O)N[C@@H](CCCNC(=N)N)C(=O)N[C@@H](CC(C)C)C(=O)N[C@@H](CC(C)C)C(=O)N[C@@H](CCC(=O)O)C(=O)N[C@@H](CCC(=O)O)C(=O)N[C@@H](C)C(=O)N[C@@H](CCC(=O)O)C(=O)N[C@@H](CCCNC(=N)N)C(=O)N[C@@H](CC(C)C)C(=O)N[C@@H](CC(C)C)C(=O)N[C@@H](CCC(=O)O)C(=O)N[C@@H](CCC(=O)O)C(=O)N[C@H](C(=O)N[C@@H](CCC(=O)O)C(=O)N[C@@H](CCCNC(=N)N)C(N)=O)C(C)C [Compound 105] | 0.057 nM | –
CC[C@H](C)[C@H](NC(=O)[C@H](CC(C)C)NC(=O)[C@H](CC(=O)O)NC(=O)[C@H](CO)NC(=O)[C@@H](NC(=O)[C@H](CCCNC(=N)N)NC(=O)[C@H](CCSC)NC(=O)[C@H](CO)NC(=O)[C@H](C)NC(=O)[C@H](CCC(=O)O)NC(=O)[C@H](C)NC(=O)[C@H](Cc1c[nH]cn1)NC(=O)CNC(=O)[C@H](CC(C)C)NC(=O)[C@H](CCC(=O)O)NC(=O)[C@H](CC(=O)O)NC(=O)[C@H](CC(C)C)NC(=O)[C@H](CC(C)C)NC(=O)[C@H](CCCNC(=N)N)NC(=O)[C@H](CCSC)NC(=O)[C@@H](NC(=O)[C@H](CCC(=O)O)NC(=O)[C@H](Cc1ccc(O)cc1)NC(=O)[C@@H](NC(=O)[C@H](CCCCN)NC(=O)[C@H](CCC(N)=O)NC(=O)[C@H](CC(C)C)NC(=O)[C@@H](NC(=O)[C@H](Cc1c[nH]c2ccccc12)NC(=O)[C@H](CCC(=O)O)NC(=O)[C@H](CCCCN)NC(=O)[C@@H](N)CC(=O)O)[C@@H](C)CC)[C@@H](C)CC)[C@@H](C)CC)C(C)C)C(=O)N[C@@H](Cc1ccc(O)cc1)C(=O)N[C@@H](CCC(=O)O)C(=O)N[C@@H](Cc1ccccc1)C(=O)N[C@@H](CCSC)C(=O)N[C@@H](CCCCN)C(=O)N[C@@H](CCCCN)C(=O)NCC(=O)NCC(=O)NCC(=O)NCC(=O)N[C@@H](CC(=O)O)C(=O)N[C@H]1CSSC[C@@H](C(=O)N[C@H](C(=O)O)[C@@H](C)O)NC(=O)[C@H](Cc2c[nH]c3ccccc23)NC(=O)[C@H](C(C)C)NC(=O)[C@H](CC(C)C)NC(=O)[C@H](CCC(=O)O)NC(=O)CNC(=O)[C@H](CC(C)C)NC(=O)[C@H](Cc2c[nH]cn2)NC(=O)[C@H](Cc2c[nH]c3ccccc23)NC(=O)[C@H](C)NC1=O [Compound 106] | 1.4 nM | –
CC[C@H](C)[C@H](NC(=O)[C@H](CC(C)C)NC(=O)[C@H](CC(=O)O)NC(=O)[C@H](CO)NC(=O)[C@@H](NC(=O)[C@H](CCCNC(=N)N)NC(=O)[C@H](CCSC)NC(=O)[C@H](CO)NC(=O)[C@H](C)NC(=O)[C@H](CCC(=O)O)NC(=O)[C@H](C)NC(=O)[C@H](Cc1c[nH]cn1)NC(=O)CNC(=O)[C@H](CC(C)C)NC(=O)[C@H](CCC(=O)O)NC(=O)[C@H](CC(=O)O)NC(=O)[C@H](CC(C)C)NC(=O)[C@H](CC(C)C)NC(=O)[C@H](CCCNC(=N)N)NC(=O)[C@H](CCSC)NC(=O)[C@@H](NC(=O)[C@H](CCC(=O)O)NC(=O)[C@H](Cc1ccc(O)cc1)NC(=O)[C@@H](NC(=O)[C@H](CCCCN)NC(=O)[C@H](CCC(N)=O)NC(=O)[C@H](CC(C)C)NC(=O)[C@@H](NC(=O)[C@H](Cc1c[nH]c2ccccc12)NC(=O)[C@H](CCC(=O)O)NC(=O)[C@H](CCCCN)NC(=O)[C@@H](N)CC(=O)O)[C@@H](C)CC)[C@@H](C)CC)[C@@H](C)CC)C(C)C)C(=O)N[C@@H](Cc1ccc(O)cc1)C(=O)N[C@@H](CCC(=O)O)C(=O)N[C@@H](Cc1ccccc1)C(=O)N[C@@H](CCSC)C(=O)N[C@@H](CCCCN)C(=O)N[C@@H](CCCCN)C(=O)NCC(=O)N[C@@H](CCC(N)=O)C(=O)N[C@@H](C)C(=O)N1CCC[C@H]1C(=O)N[C@@H](CC(=O)O)C(=O)N[C@H]1CSSC[C@@H](C(=O)N[C@H](C(=O)O)[C@@H](C)O)NC(=O)[C@H](Cc2c[nH]c3ccccc23)NC(=O)[C@H](C(C)C)NC(=O)[C@H](CC(C)C)NC(=O)[C@H](CCC(=O)O)NC(=O)CNC(=O)[C@H](CC(C)C)NC(=O)[C@H](Cc2c[nH]cn2)NC(=O)[C@H](Cc2c[nH]c3ccccc23)NC(=O)[C@H](C)NC1=O [Compound 108] | 1.4 nM | –
CC[C@H](C)[C@H](NC(=O)[C@H](CC(C)C)NC(=O)[C@H](CC(=O)O)NC(=O)[C@H](CO)NC(=O)[C@@H](NC(=O)[C@H](CCCNC(=N)N)NC(=O)[C@H](CCSC)NC(=O)[C@@H]1CSSC[C@H](NC(=O)[C@H](CC(C)C)NC(=O)[C@H](CCCNC(=N)N)NC(=O)[C@H](CCSC)NC(=O)[C@@H](NC(=O)[C@H](CCC(=O)O)NC(=O)[C@H](Cc2ccc(O)cc2)NC(=O)[C@@H](NC(=O)[C@H](CCCCN)NC(=O)[C@H](CCC(N)=O)NC(=O)[C@H](CC(C)C)NC(=O)[C@@H](NC(=O)[C@H](Cc2c[nH]c3ccccc23)NC(=O)[C@H](CCC(=O)O)NC(=O)[C@H](CCCCN)NC(=O)[C@@H](N)CC(=O)O)[C@@H](C)CC)[C@@H](C)CC)[C@@H](C)CC)C(=O)N[C@@H](CC(=O)O)C(=O)N[C@@H](CCC(=O)O)C(=O)N[C@@H](CC(C)C)C(=O)NCC(=O)N[C@@H](Cc2c[nH]cn2)C(=O)N[C@@H](C)C(=O)N[C@@H](CCC(=O)O)C(=O)N[C@@H](C)C(=O)N1)C(C)C)C(=O)N[C@@H](Cc1ccc(O)cc1)C(=O)N[C@@H](CCC(=O)O)C(=O)N[C@@H](Cc1ccccc1)C(=O)N[C@@H](CCSC)C(=O)N[C@@H](CCCCN)C(=O)N[C@@H](CCCCN)C(=O)NCC(N)=O [Compound 138] (H-DKEWILQKIYEIMRLCDELGHAEACMRVSDLIYEFMKKG-NH2; disulfide 16-25) | 23 nM | –
CC[C@H](C)[C@H](NC(=O)[C@H](CC(C)C)NC(=O)[C@H](CC(=O)O)NC(=O)[C@H](CO)NC(=O)[C@@H](NC(=O)[C@H](CCCNC(=N)N)NC(=O)[C@H](CCSC)NC(=O)[C@H](CO)NC(=O)[C@H](C)NC(=O)[C@H](CCC(=O)O)NC(=O)[C@H](C)NC(=O)CCOCCOCCOCCOCCNC(=O)CCCC[C@@H]1SC[C@@H]2NC(=O)N[C@@H]21)C(C)C)C(=O)N[C@@H](Cc1ccc(O)cc1)C(=O)N[C@@H](CCC(=O)O)C(=O)N[C@@H](Cc1ccccc1)C(=O)N[C@@H](CCSC)C(=O)N[C@@H](CCCCN)C(=O)N[C@@H](CCCCN)C(=O)NCC(=O)N[C@@H](CC(=O)O)C(=O)N[C@@H](CCC(=O)O)C(=O)N[C@@H](CCCNC(=N)N)C(=O)N[C@@H](CC(C)C)C(=O)N[C@@H](CC(C)C)C(=O)N[C@@H](CCC(=O)O)C(=O)N[C@@H](CCC(=O)O)C(=O)N[C@@H](C)C(=O)N[C@@H](CCC(=O)O)C(=O)N[C@@H](CCCNC(=N)N)C(=O)N[C@@H](CC(C)C)C(=O)N[C@@H](CC(C)C)C(=O)N[C@@H](CCC(=O)O)C(=O)N[C@@H](CCC(=O)O)C(=O)N[C@H](C(=O)N[C@@H](CCC(=O)O)C(=O)N[C@@H](CCCNC(=N)N)C(=O)O)C(C)C [Compound 211] ({Biotin-PEG4}-AEASMRVSDLIYEFMKKGDERLLEEAERLLEEVER-OH) | – | 2000 nM
Ac-ILQKIYEIMRLCDELGHAEACMRVSDLIYEFMKKGDCAWHLGELVWCT-NH2 (disulfide 12-21, 37-47) [Compound 139] | – | 30 nM
Ac-ILQKIYEIMRLLDELGHAEASMRVSDLIYEFMKKDCAWHLGELVWCT (disulfide 36-46) [Compound 118] | – | 1.1 nM
Ac-QKIYEIMRLCDELGHAEACMRVSDLIYEFMKKGDCAWHLGELVWCT-NH2 (disulfide 10-19, 35-45) [Compound 164] | – | > 100 nM
{Biotin-PEG4}-[Aib]SDKEWILQKIYEIMRLLDELGHAEAS[Nle]RVSDLIY[Aib]FMK[Aib]G [Compound 218] | – | 0.13 nM and 0.18 nM
{Biotin-PEG4}-[Aib]SDKEWILQKIYEI[Nle]RLLDELGHAEAS[Nle]RVSDLIY[Aib]FMK[Aib]G [Compound 220] | – | 0.068 nM and 0.12 nM
